The whole screen tested about 48,000 compounds, of which about 550 (1.1%) were called active. The inconclusive results got no clear call from the source; some entries with a clear call stand among them for comparison. No stated cut-off is given here; in the data, active means potency below about 15 µM; inconclusive means mostly about 16 µM to 33 µM; inactive means weaker than that. No potency is given beside an inconclusive call; the fits are too rough.
The molecules below were run against Lysosomal acid glucosylceramidase (Homo sapiens) (UniProt P04062) (assay: Glucocerebrosidase). Details: purified enzyme, resorufin glucoside fluorescence (screen aimed at inhibitors), 20 min.
Procedure, shortened: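 Wild-type enzyme at 0.2 nM final in 50mM citric acid/KH2PO4, 10mM sodium taurocholate, 0.01% tween-20, pH 5.9, with resorufin beta-D-glucopyranoside at 30 uM final. Compounds titrated, 20 min at RT, red fluorescence read; AC50 from titration.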
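Further: the screen sought inhibitors.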
Potency means the concentration at half of the fitted maximal effect.

Sequence of UniProt P04062 (P04062 whole entry, looked up): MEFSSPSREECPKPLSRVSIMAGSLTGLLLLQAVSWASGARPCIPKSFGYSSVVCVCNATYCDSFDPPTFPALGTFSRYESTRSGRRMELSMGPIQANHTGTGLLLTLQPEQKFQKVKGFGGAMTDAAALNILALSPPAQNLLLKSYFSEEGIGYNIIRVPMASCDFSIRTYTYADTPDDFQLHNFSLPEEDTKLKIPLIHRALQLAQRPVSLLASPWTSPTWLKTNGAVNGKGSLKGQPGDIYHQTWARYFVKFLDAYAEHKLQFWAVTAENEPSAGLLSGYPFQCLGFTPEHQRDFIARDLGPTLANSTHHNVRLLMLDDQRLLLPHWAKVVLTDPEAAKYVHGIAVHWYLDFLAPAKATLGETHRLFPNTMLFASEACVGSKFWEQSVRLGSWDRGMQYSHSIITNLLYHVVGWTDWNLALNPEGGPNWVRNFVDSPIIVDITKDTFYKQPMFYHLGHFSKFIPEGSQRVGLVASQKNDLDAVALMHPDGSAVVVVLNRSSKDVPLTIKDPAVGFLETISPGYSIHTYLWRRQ

Row | Structure (SMILES) | Potency
1 | Cc1nc2cc(NC(=O)NCc3ccco3)ccc2n1C | inconclusive [decreasing]
2 | O=c1[nH]c2ccccc2c2nc3ccccn3c12 | inactive: > 76.9 µM
3 | CCc1cc2c(=O)c(-c3ccon3)c(N)oc2cc1OC | inconclusive [increasing]
4 | CCCCOc1ccc(C2C3CN(C(=O)OCC)CC=C3C(C#N)=C(N)C2(C#N)C#N)cc1OC (stereo unspecified) | active: 15.2 µM
5 | COc1ccc(N2CCN(C(=O)CSc3nnc(C)c(=O)[nH]3)CC2)cc1 | inactive: > 76.9 µM
6 | C=CCn1c(=N)n(CC(O)c2ccco2)c2ccccc21 (stereo unspecified) | inconclusive [increasing]
7 | Cc1ccc(C(=O)Cn2c(NCCO)nc3ccccc32)cc1 | active: 14.2 µM
8 | N=c1c2c(-c3ccccc3)c(-c3ccccc3)n(Cc3ccco3)c2ncn1CCN1CCOCC1 | inconclusive [decreasing]
9 | Clc1ccc2[nH]c3c(NCC4CCCO4)ncnc3c2c1 (stereo unspecified) | inconclusive [decreasing]
10 | CC(C)COC(=O)C(C#N)c1nc2ccccc2nc1N1CCN(Cc2ccccc2)CC1 (stereo unspecified) | inconclusive [decreasing]
11 | O=C(CN1C(=O)c2cccc3cccc1c23)Nc1ccc2c(c1)OCO2 | inactive: > 76.9 µM
12 | CCOc1cccc(-c2nnc(SCC(=O)Nc3cccc(OC)c3)n2N)c1 | inactive: > 76.9 µM
13 | N#CC1=C(N)C(C#N)(C#N)[C@H](c2c(F)cccc2F)[C@H]2CC3(CC=C12)OCCO3 | active: 13.6 µM
14 | COc1ccc(S(=O)(=O)NCCSCc2ccco2)cc1Cl | inconclusive [decreasing]
15 | Cn1c(CSc2ccccc2)c(C#N)c2ccccc21 | inactive: > 76.9 µM
16 | CCCc1cc(=O)[nH]c(SCC(=O)c2c(N)n(C)c(=O)n(C)c2=O)n1 | inconclusive [increasing]
17 | O=C(Nc1cccnc1)c1coc(=O)c2ccccc12 | inactive: > 76.9 µM
18 | Cn1nc(CC(=O)Nc2ncc(Br)s2)c2ccccc2c1=O | inconclusive [decreasing]
19 | O=C(OC(C(=O)NCc1cccs1)c1ccccc1Cl)c1ccco1 (stereo unspecified) | inconclusive [decreasing]
20 | CC(c1nnc(SCn2nnc3ccccc3c2=O)n1-c1ccc(Cl)cc1)N(C)C (stereo unspecified) | inactive: > 76.9 µM
21 | CCCCCCNC(=O)Cc1c(O)c2ccccc2[nH]c1=O | inactive: > 76.9 µM
22 | N#Cc1ccc2ccn(CC(=O)NC3CCCCCC3)c2c1 | inconclusive [decreasing]
23 | O=C(NCc1ccc2c(c1)OCO2)c1ccc2snnc2c1 | inactive: > 76.9 µM
24 | COc1ccc(-c2ccc(-c3noc(-c4ccccc4C)n3)c(OC)n2)cc1 | active: 11.1 µM
25 | CCOC(=O)c1cc2c(=O)n3ccccc3nc2n(CCCOC)c1=NC(=O)C(C)(C)C | inconclusive [increasing]
26 | CCC(=O)Nc1ccc(C(=O)Cn2nc(C(=O)O)c3ccccc3c2=O)cc1 | active: 4.62 µM

Row | Structure (SMILES) | Potency
27 | CCSc1nc(N2CCOCC2)c2c(c1C#N)CCCC2 | inactive: > 76.9 µM
28 | O=C1CC(N2CCCN(C3CC(=O)N(c4ccc(F)cc4)C3=O)CC2)C(=O)N1c1ccc(F)cc1 (stereo unspecified) | inconclusive [decreasing]
29 | COc1ccc(CCn2c(N)c(C(=O)NCc3ccco3)c3nc4ccccc4nc32)cc1OC | inactive: > 76.9 µM
30 | CCOC(=O)c1[nH]c(C)c(C(=O)NC2CCCCCC2)c1C | inactive: > 76.9 µM
31 | COc1ccc2c(c1)c(C(=O)CN1CCC3(CC1)OCCO3)c(C)n2C | inconclusive [decreasing]
32 | O=C(COc1ccc(Br)cc1)Nc1ccc(-c2nnc(-c3ccco3)o2)cc1 | inactive: > 76.9 µM
33 | Cc1cc(NC(=O)CS(=O)(=O)c2cn(Cc3cccc(F)c3)c3ccccc23)no1 | inconclusive [decreasing]
34 | CCCCOC(=O)Cn1c(=N)n(CCC)c2ccccc21 | active: 11.1 µM
35 | CCOC(=O)CCSc1nc2c(c(C(F)(F)F)c1C#N)CCC2 | active: 14.9 µM
36 | CCOC(=O)c1c(C)[nH]c(C)c1C(=O)CSc1nnc(-c2ccco2)n1Cc1ccccc1 | inconclusive [decreasing]
37 | CC(C)CCSc1nc(N)c(C#N)cc1C#N | inconclusive [decreasing]
38 | O=C(Nc1ccc2c(c1)nc1n2CCOC1)C1CCCCC1 | inconclusive [decreasing]
39 | COc1cccc(N2CCN(C3CC(=O)N(c4ccc(C)c(Cl)c4)C3=O)CC2)c1 (stereo unspecified) | inconclusive [decreasing]
40 | O=C(Nc1sc2c(c1C(=O)O)CCC2)c1cccs1 | inactive: > 76.9 µM
41 | COc1ccc(-c2ccc(-c3noc(-c4ccccc4OC)n3)c(OC)n2)cc1 | active: 11.6 µM
42 | O=C(CN(C(=O)Cn1nnc(-c2cccs2)n1)c1ccc2c(c1)OCCO2)NC1CCCCC1 | inconclusive [decreasing]
43 | Cc1ccc2c(c1)c(C)c(C)n2CC(O)Cn1nc(C)c(Br)c1C (stereo unspecified) | inconclusive [decreasing]
44 | COC(=O)c1cc(-c2cccc(OC)c2)on1 | inactive: > 76.9 µM
45 | Cc1cccc(NCc2ccccc2O)n1 | inconclusive [decreasing]
46 | COc1ccccc1N1CCN(C(=O)CSc2ncccc2-c2nc3ccccc3[nH]2)CC1 | inactive: > 76.9 µM
47 | COc1cc(-c2cc3nc(C)c(C)c(=O)n3[nH]2)cc(OC)c1OC | inconclusive [decreasing]
48 | Cc1noc(C)c1C(=O)OCC(=O)c1cc(C)n(Cc2ccccc2Cl)c1C | inactive: > 76.9 µM
49 | COc1ccccc1CNC(=O)C1CCN(Cc2nc(-c3ccc(Cl)cc3)oc2C)CC1 | inconclusive [decreasing]
50 | CC(=O)N1CCN(CCN(CC2C(C)C=C(C)CC2C)C(C)=O)CC1 (stereo unspecified) | inconclusive [decreasing]
51 | CCN1CCN(C(=O)c2ccc3c(=O)n(C4CCCC4)c(=S)[nH]c3c2)CC1 | inactive: > 76.9 µM
